The values below come from the RNAGym collection of RNA variant scans (doi:10.7554/elife.90254).

Read counts are not given, so values of variants with three or more changes are uncertain.

B1: LINE1-full (parent)
chain: UACGUAGGUGGUUUUCCCCUGAUAGUGCUAAGGGGGCCUGGAAGUUUGGACUGGGCAGAGCUCAACACAGCGUGGCAAAGUGGCUGUGGCUAGACUGCCUCUCUGGAUUCCUCGUCACUCAGCAGGGCAUCUCUGAGAGAAAUGCC

In this data set the parent is B1. Put plainly: self-cleavage, relative activity (ratio to wild type); higher = more cleavage; in vitro, sequencing; the parent is a self-cleaving ribozyme.
Take UACGUAGGUGGUUUUCCCCUGAUAGUGCCAAGGGGGCCUAGAAGUUUGGACUGGGCAGAGCUCAACACAGCGUGGCAAAGUGGCUGUGGCUAGACUGCCUCUCUGGAUUCCUCGUCACUCAGCAGGGCAUCUCUGAGAGGAAUGCC [U29C G40A A140G]: the self-cleavage came out at 0.96.

For the variant UACGUAGGUGGUUCUCCCCUGAUAGUGCUAAGGGGGCCUGGGAGUUUGGACUGGGCAGAGCUCGACACAGCGUGGCAAAGUGGCUGUGGCUAGACUGCCUCUCUGGAUUCCUCGUCACUCAGCAGGGCAUCUCUGAGAGAAAUGCC [U14C A42G A64G], the self-cleavage came to 0.39.

With UACGAAGGUGGUUUUCCCCUGAUAGUGCUAAGGGGGCCUGGAAGUUUGGACUGGGCAGAGCUCAACACAGCGUGGCAAAGUGGCUGUGGCUAGACUGCCUCUCCGGAUUCCUCGUCGCUCAGCAGGGCAUCUCUGAGAGAAAUGCC [U5A U104C A117G], the self-cleavage worked out at 0.

As for UACGUAGGUGGUUUUCCCCUGAAAGUGCUAAGGGGGCCUGGAAGUUUGGACUGGGCAGAGCUCAACACAGCGUGGCAAAGUAGCUGUGGCUAGACUGCCACUCUGGAUUCCUCGUCACUCAGCAGGGCAUCUCUGGGAGAAAUGCC [U23A G82A U100A A136G], the self-cleavage came to 1.16.

Regarding UACGUAGGUGGUUUUCCCCUGAUAGUGCUAAGGGGGGCUGGAGGUUUGGACUGGGCAGAGCUCAACACAGCGUGGCAAAGUGGCUGUGGCUAGACUGCCUCUCUGGAUUCCUCGUCACUCAGCAGGGCAUCUCUGAGAGAGAUGCC [C37G A43G A141G], the self-cleavage was determined as 0.68.

As to UACGUAGGUGGUUUUCCCCUGAUAGUGCUAAGGGGGCCUGGAAGUUUGGACUGGGCAGAGCUCAACACAGCGUGGCAAAGUGGCUGUGGCUAGACUGCCCCUCUGGAUUCCUCGUCACUCAGCAGGGCAUUCCUGAGAAAAAUGCC [U100C C131U U132C G139A], the self-cleavage was determined as 1.71.

Consider UACGUAGGUGGUUUUCCCCUGAUAGUGCUAAGGGGGCCUGGAAGUAUGGACUGGGCAGAGCUCAACACAGCGUGGCAAAGUGGCCGUGGCUAGACUGCCUCUCUGGAUUCCUCGUCACUCAGCAGGGCAUCUCUGAGAGUAAUGCC [U46A U85C A140U], for which the self-cleavage is 0.17.

With UACGUAGGUUGUUUUCCCCUGAUAGUGCUAAGGGGGCCUGGAAGUUUGGACUGGGCAGAGCUCAACACAGCGUGGCAAAGUGGCUGUGGCUAGACUGCCUCUCUUGAUUCCUCGUCACUCAGCAGGGCAUCUCUGAGAGAAGUGCC [G10U G105U A142G], the self-cleavage is 1.75.

For the variant UACAUAGGUGGUUUUCCCCUGAUAGUGCUAAGGGGGCCUGGAAGUCUGGACUGGGCAGAGCUCACCACAGCAUGGCAAAGUGGCUGUGGCUAGACUGCCUCUCUGGAUUCCUCGUCACUCAGCAGGGCAUCUCUGAGAGAAAUGCC [G4A U46C A65C G72A], the self-cleavage was 0.04.

Take UACGUAGGUGGUUUUCCCCUGAUAGUGCUAAGGGGGCCUGGAUGUUAGGACUGGGCAGAGCUAAACACAGCGUGGCAAAGUGGCUGUGGCUAGACUGCCUCUCUGGAUUCCCCGUCACUCGGCAGGGCAUCUCUGAGAGAAAUGCC [A43U U47A C63A U112C A121G]: the self-cleavage is 0.05.

As to UACGUAGGUGGUUUUCCCCUGAUAGUGCUAAGGGGGCCUGGAUGUUUGGACUGGGCAGAGCUCAACACAGCGUGGCAGAGUGGCUGUGGCUAGACUGCCUCUCUGGAUUCCUCGUCACUCAGCUGGGCAUCUCUGUGAGAAAUGCC [A43U A78G A124U A136U], the self-cleavage came out at 1.58.

On to UACGUAGGUGGUUUUCCCCUGAUAGUGCUGAGGGGGCCUGGAAGUUUGGACUGGGCAGAGCGCAACACAGCGUGGCAAAGUGGCUGCGGCUAGACAGCCUCUCUGGAUUCCUCGUCACUCAGCAGGGCAUCUCUGAGAGAAAUGCC [A30G U62G U87C U96A], for which the self-cleavage amounted to 0.

Take UACGUAGGUGGUUUUCCCCUGAUAGUGCUAAGGGGGCCUGGAAGUUUGGACUGGGCAUAGCUCAUCACAGCGUGGCAAAGUGGCUGUGGCUAGACUGCCUCUCUGGAUUCCUCGUCAAUCAGCAGGGCAUCUCUGAGAGAAAUGCC [G58U A65U C118A]: the self-cleavage is 0.08.

For the variant CACGUAGGUGGUUUCCCCCUGAUAGUGCUAAGGGGGCCUGGAAGUUUGGACUGGGCAGAGCUCAACACAGCAUGGCAAAGAGGCUGUGGCUAGACUGCCUCUCUGGAUUCCUCGUCACUCAGCAGGGCAUCUCUGGGAGAAAUGCC [U1C U15C G72A U81A A136G], the self-cleavage is 1.61.

On to UACGUAGGUGGUUUUCCCCUGAUAGUGCUAAGGGGGCCUGGAAGUUUGGACUGGGCAGAGCUCAACACAGCGUGGCAAAGUGGCUGUGGCAAGACUGCCUCUCUGGAUUCCUCGUCACUCAGCAGGGCAUCUCCGAGAGAAGUGCC [U91A U134C A142G], for which the self-cleavage was 0.91.

UACGUAGGUGGUUUUCCCCCGAUAGUGCUAAGGGGGCCUGGAAGUUUGGACUGGGCAGAGCUCAACACAGCGUGGCAAGGUGGCUGCGGCUAGAUUGCCUCUCUGGAUUCCUCGUCACUCAGCAGGGCAUCUCUGAGAGAGAUGCC [U20C A79G U87C C95U A141G]: the self-cleavage stood at 0.11.

In the case of UACGUAGGUGGUUCUCCCCUGAUAGUGCUAAGGGGGCCUGGAAGUUUGGACUGGGCAGAGCUCAACACAGCGUGGCAAAGUGGCUGUGGCUAGACUGCCUCUCUGGAUUCCUCGUCACUCAGCAGGGCGUCUCUGAGAGGAAUGCC [U14C A129G A140G], the self-cleavage was found to be 1.02.

Regarding UACGUAGGUGGUUCUCCCCUGAUAGUGCUAAGGGGGCCUGGAAGUUUGGACUGGGCAGAGCUCAACACAGCGUGGCAUAGUGGCUGAGGCUAGACUGCCUCUCUGGAUUCCUCGACACUCAGCAGGGCAUCUCUGAGAGAAAUGCC [U14C A78U U87A U115A], the self-cleavage was found to be 0.08.

UACGUAGGUGGUUUUCCCCUGGUAGUGCUAAGGGGGCCUGGAAGUUUGGACUGGGCAGAGCUCAACACAGCGCGGCAAAGUGGCUGUGGCUAGACUGCCUUUCUGGAUUCCUCGUCAUUCAGCAGGGCAUCUCUGAGAGAAAUGCC [A22G U73C C101U C118U]: the self-cleavage was found to be 1.51.

For the variant UACGUAGGUGGUUCACCCCUGAUAGUGCUAAGGGGGCCUGGAGGUUUGGACUGGGCAGAGCUCAACACAGCGUGGCUAAGUGGCUGUGGCUAGACUGCCUCUCUGGAUUCCUCGUCACUCAGCAGGGCAUCUCUGAGAGAAAUGCC [U14C U15A A43G A77U], the self-cleavage is 0.88.
